Experimental data as given in publication PMC9911399, “Two distinct binding modes provide the RNA-binding protein RbFox with extraordinary sequence specificity”.
Substitutions are numbered along the chain they refer to; changes in the protein carry UniProt numbers. The list shows a part of the results.

T1: RBFOX1 RRM RbFoxmut (Fox-RRM*) (Homo sapiens, UniProt Q9NWB1 109-208, R118D;E147R;N151S;E152T)
T1 sequence: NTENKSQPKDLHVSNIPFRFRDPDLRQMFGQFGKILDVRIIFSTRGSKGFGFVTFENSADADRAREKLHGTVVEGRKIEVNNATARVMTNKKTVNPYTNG

B1: GCUCCCU (DNA:RNA)
RNA: GGGAGACCGGAAUUCAGAUUGUCCGCUCCCUUUAAAUCCCGUCGUAGCCACCA
DNA 1: CAATCTGAATTCCGGTCTCCC
DNA 2: TGGTGGCTACGACGGGATT
B2: GCACAAU (DNA:RNA)
RNA: B1 RNA with U27A, C29A, C30A
DNA 1: CAATCTGAATTCCGGTCTCCC
DNA 2: TGGTGGCTACGACGGGATT
B3: AGAUAAU (DNA:RNA)
RNA: B1 RNA with G25A, C26G, U27A, C28U, C29A, C30A
DNA 1: CAATCTGAATTCCGGTCTCCC
DNA 2: TGGTGGCTACGACGGGATT
B4: UGGAAAG (DNA:RNA)
RNA: GGGAGACCGGAAUUCAGAUUGUCCUGGAAAGUUAAAUCCCGUCGUAGCCACCA
DNA 1: CAATCTGAATTCCGGTCTCCC
DNA 2: TGGTGGCTACGACGGGATT
B5: GGCGGAC (DNA:RNA)
RNA: B4 RNA with U25G, G27C, A28G, A29G, G31C
DNA 1: CAATCTGAATTCCGGTCTCCC
DNA 2: TGGTGGCTACGACGGGATT
B6: UAUAACU (DNA:RNA)
RNA: B1 RNA with G25U, C26A, C28A, C29A
DNA 1: CAATCTGAATTCCGGTCTCCC
DNA 2: TGGTGGCTACGACGGGATT
B7: UCUUGCG (DNA:RNA)
RNA: B1 RNA with G25U, C28U, C29G, U31G
DNA 1: CAATCTGAATTCCGGTCTCCC
DNA 2: TGGTGGCTACGACGGGATT
B8: CAGUCCC (DNA:RNA)
RNA: B1 RNA with G25C, C26A, U27G, C28U, U31C
DNA 1: CAATCTGAATTCCGGTCTCCC
DNA 2: TGGTGGCTACGACGGGATT
B9: CGUUUGC (DNA:RNA)
RNA: B1 RNA with G25C, C26G, C28U, C29U, C30G, U31C
DNA 1: CAATCTGAATTCCGGTCTCCC
DNA 2: TGGTGGCTACGACGGGATT
B10: UCACUGC (DNA:RNA)
RNA: B1 RNA with G25U, U27A, C29U, C30G, U31C
DNA 1: CAATCTGAATTCCGGTCTCCC
DNA 2: TGGTGGCTACGACGGGATT
B11: CUUCGAU (DNA:RNA)
RNA: B1 RNA with G25C, C26U, C29G, C30A
DNA 1: CAATCTGAATTCCGGTCTCCC
DNA 2: TGGTGGCTACGACGGGATT
B12: CGAACCU (DNA:RNA)
RNA: B1 RNA with G25C, C26G, U27A, C28A
DNA 1: CAATCTGAATTCCGGTCTCCC
DNA 2: TGGTGGCTACGACGGGATT
B13: UCAACGU (DNA:RNA)
RNA: B1 RNA with G25U, U27A, C28A, C30G
DNA 1: CAATCTGAATTCCGGTCTCCC
DNA 2: TGGTGGCTACGACGGGATT
B14: CCGUGCC (DNA:RNA)
RNA: B1 RNA with G25C, U27G, C28U, C29G, U31C
DNA 1: CAATCTGAATTCCGGTCTCCC
DNA 2: TGGTGGCTACGACGGGATT
B15: GGUCUGG (DNA:RNA)
RNA: B1 RNA with C26G, C29U, C30G, U31G
DNA 1: CAATCTGAATTCCGGTCTCCC
DNA 2: TGGTGGCTACGACGGGATT
B16: AUACAAC (DNA:RNA)
RNA: B4 RNA with U25A, G26U, G27A, A28C, G31C
DNA 1: CAATCTGAATTCCGGTCTCCC
DNA 2: TGGTGGCTACGACGGGATT
B17: CAGAUAG (DNA:RNA)
RNA: B4 RNA with U25C, G26A, A29U
DNA 1: CAATCTGAATTCCGGTCTCCC
DNA 2: TGGTGGCTACGACGGGATT
B18: AUUUCCU (DNA:RNA)
RNA: B1 RNA with G25A, C26U, C28U
DNA 1: CAATCTGAATTCCGGTCTCCC
DNA 2: TGGTGGCTACGACGGGATT
B19: CCCAUUC (DNA:RNA)
RNA: B1 RNA with G25C, U27C, C28A, C29U, C30U, U31C
DNA 1: CAATCTGAATTCCGGTCTCCC
DNA 2: TGGTGGCTACGACGGGATT
B20: UUUUCGU (DNA:RNA)
RNA: B1 RNA with G25U, C26U, C28U, C30G
DNA 1: CAATCTGAATTCCGGTCTCCC
DNA 2: TGGTGGCTACGACGGGATT
B21: UAAUGCA (DNA:RNA)
RNA: B1 RNA with G25U, C26A, U27A, C28U, C29G, U31A
DNA 1: CAATCTGAATTCCGGTCTCCC
DNA 2: TGGTGGCTACGACGGGATT
B22: UGUCUAG (DNA:RNA)
RNA: B4 RNA with G27U, A28C, A29U
DNA 1: CAATCTGAATTCCGGTCTCCC
DNA 2: TGGTGGCTACGACGGGATT
B23: GAUCUAU (DNA:RNA)
RNA: B1 RNA with C26A, C29U, C30A
DNA 1: CAATCTGAATTCCGGTCTCCC
DNA 2: TGGTGGCTACGACGGGATT
B24: CUUUACU (DNA:RNA)
RNA: B1 RNA with G25C, C26U, C28U, C29A
DNA 1: CAATCTGAATTCCGGTCTCCC
DNA 2: TGGTGGCTACGACGGGATT
B25: UUCACUG (DNA:RNA)
RNA: B4 RNA with G26U, G27C, A29C, A30U
DNA 1: CAATCTGAATTCCGGTCTCCC
DNA 2: TGGTGGCTACGACGGGATT
B26: CUGAUUC (DNA:RNA)
RNA: B4 RNA with U25C, G26U, A29U, A30U, G31C
DNA 1: CAATCTGAATTCCGGTCTCCC
DNA 2: TGGTGGCTACGACGGGATT
B27: UCCUGGA (DNA:RNA)
RNA: B1 RNA with G25U, U27C, C28U, C29G, C30G, U31A
DNA 1: CAATCTGAATTCCGGTCTCCC
DNA 2: TGGTGGCTACGACGGGATT
B28: UGGGUGA (DNA:RNA)
RNA: B4 RNA with A28G, A29U, A30G, G31A
DNA 1: CAATCTGAATTCCGGTCTCCC
DNA 2: TGGTGGCTACGACGGGATT
B29: AAGUAAC (DNA:RNA)
RNA: B4 RNA with U25A, G26A, A28U, G31C
DNA 1: CAATCTGAATTCCGGTCTCCC
DNA 2: TGGTGGCTACGACGGGATT
B30: AAUUCGG (DNA:RNA)
RNA: B1 RNA with G25A, C26A, C28U, C30G, U31G
DNA 1: CAATCTGAATTCCGGTCTCCC
DNA 2: TGGTGGCTACGACGGGATT
B31: UUCGGCU (DNA:RNA)
RNA: B1 RNA with G25U, C26U, U27C, C28G, C29G
DNA 1: CAATCTGAATTCCGGTCTCCC
DNA 2: TGGTGGCTACGACGGGATT

The binders below were run against T1, RBFOX1 RRM RbFoxmut (Fox-RRM*) (assay: EMSA; HiTS-Eq, 1 nM pool, 10 min; buffer printed only for the single-RNA assays: 10 mM Tris pH 7.5, 150 mM NaCl, 3.4 mM EDTA, 0.001% NP-40, 30 C). Conditions: tags: His6 N-terminal (pET28a); label: 5' 32P.
In short: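 Purified RbFox RRM, wild type or mutant, was incubated for 10 min in 50 µL with 1 nM of a 5′-radiolabelled RNA pool carrying 7 randomized nucleotides, whose flanks were annealed to DNA oligonucleotides, over a series of increasing protein concentrations. Unbound RNA was resolved on 8% native PAGE, cut out, reverse-transcribed, barcoded by PCR and sequenced on an Illumina HiSeq 2500. Relative association constants were derived from changes in read counts for each RNA species versus the control reaction and normalised to the cognate motif.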
With B1 the binding signal was 0.0359 KA relative to UGCAUGU. In the case of B2, the binding signal is reported as 0.0618 KA relative to UGCAUGU. In the case of B3, the binding signal is reported as 0.0895 KA relative to UGCAUGU. With B4 the binding signal was 0.131 KA relative to UGCAUGU. In the case of B5, the binding signal is reported as 0.0664 KA relative to UGCAUGU. With B6 the binding signal was 0.0811 KA relative to UGCAUGU. With B7 the binding signal was 0.168 KA relative to UGCAUGU. B8 was tested, and the binding signal was 0.0663 KA relative to UGCAUGU. With B9 the binding signal was 0.247 KA relative to UGCAUGU. With B10 the binding signal was 0.106 KA relative to UGCAUGU. In the case of B11, the binding signal is reported as 0.0574 KA relative to UGCAUGU. For B12, the binding signal was 0.111 KA relative to UGCAUGU. With B13 the binding signal was 0.0872 KA relative to UGCAUGU. For B14, the binding signal was 0.264 KA relative to UGCAUGU. In the case of B15, the binding signal is reported as 0.153 KA relative to UGCAUGU. With B16 the binding signal was 0.0726 KA relative to UGCAUGU. With B17 the binding signal was 0.0591 KA relative to UGCAUGU. For B18, the binding signal was 0.0863 KA relative to UGCAUGU. For B19, the binding signal was 0.0844 KA relative to UGCAUGU. In the case of B20, the binding signal is reported as 0.0939 KA relative to UGCAUGU. With B21 the binding signal was 0.171 KA relative to UGCAUGU. In the case of B22, the binding signal is reported as 0.124 KA relative to UGCAUGU. With B23 the binding signal was 0.0725 KA relative to UGCAUGU. B24 was tested, and the binding signal was 0.0928 KA relative to UGCAUGU. With B25 the binding signal was 0.0999 KA relative to UGCAUGU. In the case of B26, the binding signal is reported as 0.129 KA relative to UGCAUGU. In the case of B27, the binding signal is reported as 0.0709 KA relative to UGCAUGU. With B28 the binding signal was 0.207 KA relative to UGCAUGU. For B29, the binding signal was 0.1 KA relative to UGCAUGU. For B30, the binding signal was 0.0579 KA relative to UGCAUGU. For B31, the binding signal was 0.0805 KA relative to UGCAUGU.
